Source: the supplement of paper PMC11417369
Some of the results follow.

System: PfSIP2 AP2 domain 1 (GST-tagged)
Assay: gcPBM binding intensity (ln(normalized median fluorescence intensity)); higher = stronger DNA binding
Summary of the method: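 Binding of GST-tagged P. falciparum DNA-binding domains, expressed in E. coli and used at about 25 μg on average, was carried out for 1 h in 1× PBS containing 1% milk, 0.2 mg/ml BSA, 0.5% salmon testes DNA and 0.03% Triton X-100. The target was an Agilent 4 × 180k array of primer-extended double-stranded 36-bp intergenic genomic probes plus negative controls, read with Alexa488 anti-GST antibody at 488 nm. Binding intensity is the highest Masliner-normalised natural-log median intensity across replicate spots of either probe orientation.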

In order of rising “gcPBM binding intensity (ln)” value:
1. TAAGAGATATTTTATTAAATGTTTTATGAATCATGT [TGCATGCA_negctrl_site264]  6.58
2. TTTTGAAGAAAATTCTTTTTTTTTTTTTTTTGTAAA [CACACA_negctrl_site102]  6.62
3. TAAAATAAAAGTGAAACACACAGTATTTTACAACAT [CACACA_site3811]  6.7
4. AAAAAAAAAGGTACTACACACTATTATCAATAGAAA [CACACA_site91]  6.71
5. TTTCAAACAAAAAGACGTACACTGAAGTTATCCGTC [XGTACX_site8824]  6.74
6. AAAAAAATAAAATGTTCACACATTTCACAATTACTT [CACACA_site4859]  6.76
7. AGAGGCCAGCTTTCTCTTCTAAACATGTACAAAAAT [GTGCAC_negctrl_site98]  6.78
8. ATTTTTTTTTTTTTTTTTTTTGAGAAGAACTTTTTC [CACACA_negctrl_site1019]  6.81
9. AGTGTATTAATTCTCACACACTAAGAAAAAAAAAAA [CACACA_site6007]  6.82
10. AGGAAAAAAAAAATGACACACATATTTGAATTAAAA [CACACA_site1352]  6.83
11. TTTTGTGAATTTTAGATTTTTTAATACAAGAATATT [CACACA_negctrl_site606]  6.85
12. TGTATGTTTATTTGATGTACGGTCATACATATAAAT [XGTACX_site5176]  6.87
13. TAAATATATTTATATTGTACATTTATGTTGATACCA [XGTACX_site228]  6.88
14. AAAAATACCTTATATATACACACTATGTTTTTCTTT [CACACA_site1192]  6.89
15. ATATTAAAATGAAAATATAAAAAAAAAAAAAAAAAA [CACACA_negctrl_site1559]  6.89
16. CAAAATAAAAAATTCACACACATATAAATATAAATA [CACACA_site7065]  6.89
17. AAATATTAGTAACACAGACACACAAAAAAAAAAAAA [CACACA_site2175]  6.9
18. TTGTATTCATAACAACGTACATATTTTGTAACTAAA [XGTACX_site4029]  6.9
19. ATATAATGACAAGTATAAGTATCACAAAGAAATAAA [CACACA_negctrl_site1403]  6.91
20. CAAAACCTTATATGTACACACATATACATCACCCTT [CACACA_site3170]  6.92
21. TTATATATTTATAAATGTACATATAATTTTTTTATA [XGTACX_site4696]  6.92
22. AAATTCATATGAATTTGTACGGACATAAATATCTTC [XGTACX_site1838]  6.94
23. AAAATAGCTGTATAGAGTACATATAAATAATGTTGT [XGTACX_site5692]  6.94
24. ATTTAATTTATTATGTGTACTTATTTAATTAAATTA [XGTACX_site3171]  6.95
25. ATATTTTTATTTAAATCACATCATTTTGTTTATTTG [CACACA_negctrl_site1056]  6.95
26. AAAAAAAAAAGACACACACACATATAAATATAAATA [CACACA_site6899]  6.97
27. CAATCAAATAGACACACACACACCTAAACATAAAAG [CACACA_site7322]  7
28. TATTAATAAAAGCATTGTACAGTAATAAATAAATAA [XGTACX_site2924]  7
29. ATAACAATTATTTGTCGACACACGTATATGTTATTT [CACACA_site1766]  7
30. ATAGAATAAAACTATACACACCTATATTTAAACATA [CACACA_site5106]  7.02
31. TAACACATATATTGTTGTACATTCAAACTGAAAAAT [XGTACX_site5565]  7.02
32. AATAGTTAAATGTACACACTAACTACATGGAATATA [CACACA_site3262]  7.02
33. CCCATGTAATGAACATGTACATAATAATTTATAAAT [XGTACX_site8687]  7.03
34. AAGGAAATATAATATACACACATAAGTGTACTTCTA [CACACA_site6079]  7.07
35. ACTCATAAAAATAGATGTACTTTAATAATTTGATTT [XGTACX_site8763]  7.07
36. TTTTACATATACATGTGTACATAACAAAGAATGTTT [XGTACX_site2406]  7.08
37. CAAGCTTTTTCCTTTACACACATTAATTATATATAT [CACACA_site1423]  7.08
38. TTGTATTATATTGTATTATGTTTAAATGAAAAAAAA [CACACA_negctrl_site662]  7.09
39. TGATCAGATAGACACACACACAAAAAAAAAAAAAAA [CACACA_site7805]  7.1
40. CTATTTTTTGTATAAACATGCATATAGTAGATATGG [TGCATGCA_site670]  7.1
41. TATAATATATATAGGAGTACGTATGTATATTTATAA [XGTACX_site3521]  7.11
42. GTACATACATAAAACACACACATATAGATTTATATA [CACACA_site6945]  7.12
43. CTGATATATAGATGTAGTACATAAAAATGACGAATT [XGTACX_site5612]  7.13
44. TGTTTATTTTTAAAAAGTACATATTTAAAAAACTTC [XGTACX_site271]  7.14
45. AGATGGAGAAAGTTATGTACACATATATAAATATGT [XGTACX_site6150]  7.14
46. ATATTTTATAATTTTACACACCATATAAAATAATTC [CACACA_site2797]  7.16
47. CAAAAGAAGGTAAACACACACACACGCATACAAAAA [CACACA_site7724]  7.18
48. TACTTATTATGAAACACACACCAAAACTACAGAATA [CACACA_site6265]  7.18
49. AAACATCATAAATATACACACATATTTATATTTATA [CACACA_site6437]  7.19
50. AACACTTCTTATTTATGTACTTAATTCCCAACGGAA [XGTACX_site4818]  7.2
51. AGCCATTAATTCTCTACACACCTTTATGTTATTTAG [CACACA_site3635]  7.2
52. ATTCATAATATTATAACACACGCTTATTACATAAAG [CACACA_site980]  7.2
53. CGCATGTATTTTGTGTGTACTAATTATAATCAACTT [XGTACX_site4709]  7.2
54. AAATGAATAAATAAGACACACACGAAAATAAGTAAA [CACACA_site71]  7.22
55. TTTACAGATACTTGCTCACACATATGTATAAAAATA [CACACA_site4928]  7.22
56. ATAAAATATAAAAATTGTACGATAATAATAGTAGGA [XGTACX_site8951]  7.23
57. ATATATATTTAAACTACACACGCATATCTTAGAAAT [CACACA_site8348]  7.23
58. ATATTTACCACTGTATGTACATATATAAAATATATC [XGTACX_site6373]  7.23
59. CCACTTTTTGAAGACACACACAAAAAAAAAAAAAAA [CACACA_site2551]  7.23
60. TATTGTTACTTTATATGTACTAATTAAACATATACA [XGTACX_site6363]  7.24
61. TTTAATATTTTTTTTTGTACTTATTTGTAGAAATAT [XGTACX_site3046]  7.24
62. TTTTTTTTATTAAAAAGTACTAAACAAATTATATAT [XGTACX_site121]  7.26
63. TATATACATATGTGATGTACATTTTTTGTAATATAA [XGTACX_site6985]  7.26
64. AGGCTCATTTTTTTTAGTACATCAAAAAAAAAAAAA [TGCATGCA_negctrl_site591]  7.26
65. TGCAAAAAATTCCACACACACACACGCATATAAATA [CACACA_site6696]  7.27
66. TAATATTGTATTTATGTACACACATTTTTGGAATAT [CACACA_site8371]  7.33
67. ACATGAAACTATAAACGTACATACATACATATATAT [XGTACX_site5011]  7.48
68. ATTTCTCTATCGTAATGTACATAAAAAATGAAAAAA [XGTACX_site1201]  7.54
69. TTTTTTAATAAATGGTGTACATATTTTTTTTATACT [XGTACX_site8584]  7.54
70. CATATAATTATTGAAAGTACATACAAATAAAAAGAT [XGTACX_site6535]  7.56
71. AAAAAAAAAAAAAAAAGTACACAAATTTTAAAAATT [XGTACX_site3006]  7.58
72. AAGTAAAAAAATAGCACACACACAAAAACACCCACA [CACACA_site1291]  7.58
73. ATGTCTACAGTTTTTGCACACATATAAATAAAAAAA [CACACA_site3600]  7.68
74. CCATAACTCATATGCACACATAAATATTACATATAT [CACACA_site3821]  7.71
75. TATATATATAATATATGTACTGATATGCTATTTACT [XGTACX_site841]  8.03
76. AATTACTACATAAATACATGCATAATTATATATATA [TGCATGCA_site783]  8.09
77. ATATATATATGTATATGTACATATATATACACATAT [XGTACX_site140]  8.44
78. TATATATATAAACACACACACACCAAAGCGTAGCGC [CACACA_site7903]  8.45
79. AGTGTGTGTAATAAAGTGCATTAAAAATGACACGTA  8.55
80. TTTTAAAAAGAAAAAAATAACATACATATATATATA [CACACA_negctrl_site240]  8.83
81. TCAAACGGTTAAATATGTACATATATATATATATAT [XGTACX_site2339]  9.13
82. TTTTCTAAATAAATAGTGCATTTATTATATATACAT [GTGCAC_site9766]  9.15
83. ACCCACTTTTGAGGTGTGCACAATAAATTGGACATT  9.18
84. AAATATATATATATATATATATATATATATATATAT [CACACA_negctrl_site677]  9.56
85. TATATATAAAACATATGTACATATATATATATATAT [XGTACX_site419]  9.57
86. ATATATATATATATGTGTACATATGTATATATATCT [XGTACX_site2930]  9.72
87. TTATAAAATTACTTGGTGCATTAGAATATTTCAATA  10.1
88. ATATATATATAGTGCACACATATAAAATATATATAA [CACACA_site2745]  10.3
89. TGAGCACAAATACAGGTGCATATAAAATATATGACG  10.5
